Measured values published in the supplement of paper PMC4967469.
pIC50: −log10 of the molar value. A lower IC50 marks a more sensitive line; a fit beyond the top or the lowest dose is shown as a bound at that dose. AUC sums up the same curve from the lowest dose to the 256-fold higher top dose; values near 1 show little effect. A top dose marked as inferred comes from the curve model; the source does not state it.

Compound: O=C1NC(=NCc2cccs2)S/C1=C\c1ccc2ncccc2c1 [RO-3306]
Assay: Viability of human cancer cell lines after 72 h of drug (GDSC screen)
Settings: top dose 5 µM; top dose inferred
Experimental: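 Human cancer cell lines in 384-well plates, medium with 10% serum, drug for 72 h over a 256-fold dose range (nine 2-fold or five 4-fold steps up to the top dose). Adherent lines were fixed and stained with the nucleic acid dye Syto60, suspension lines read with resazurin; signal relative to control wells, capped at 0 and 100%. One two-parameter sigmoid per drug and line, fitted in a mixed model over all curves with the slope shared within a line.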

Cell Line	AUC	pIC50
A498 (kidney, adherent)	0.938	< 5.30
A549 (lung adenocarcinoma, adherent)	0.911	< 5.30
A673 (rhabdomyosarcoma, adherent)	0.989	< 5.30
A704 (kidney, adherent)	0.928	< 5.30
A2780 (ovary, semi-adherent)	0.984	< 5.30
AGS (stomach, adherent)	0.786	5.71
ALL-PO (lymphoblastic leukaemia, suspension)	0.8	5.59
ALL-SIL (T-cell leukaemia, suspension)	0.989	< 5.30
AM-38 (glioma, semi-adherent)	0.988	< 5.30
AMO-1 (haematopoietic neoplasm, suspension)	0.988	< 5.30
ARH-77 (myeloma, suspension)	0.98	< 5.30
ASH-3 (thyroid, adherent)	0.901	< 5.30
ATN-1 (T-cell lymphoblastic leukaemia, suspension)	0.949	< 5.30
AU565 (breast, adherent)	0.778	5.65
AsPC-1 (pancreas, adherent)	0.888	< 5.30
BALL-1 (B-cell leukaemia, suspension)	0.997	< 5.30
BB30-HNC (head and neck, adherent)	0.81	5.59
BB49-HNC (head and neck, adherent)	0.975	< 5.30
BC-1 (B-cell lymphoma, suspension)	0.99	< 5.30
BCPAP (thyroid, adherent)	0.979	< 5.30
BE2-M17 (neuroblastoma, adherent)	0.97	< 5.30

Cell Line	AUC	pIC50
BE-13 (lymphoblastic leukaemia, suspension)	0.978	< 5.30
BFTC-905 (bladder, adherent)	0.924	< 5.30
BHT-101 (thyroid, adherent)	0.94	< 5.30
BHY (head and neck, adherent)	0.951	< 5.30
BICR10 (head and neck, adherent)	0.953	< 5.30
BICR22 (head and neck, adherent)	0.846	5.34
BICR78 (head and neck, adherent)	0.887	< 5.30
BL-41 (Burkitt lymphoma, suspension)	0.991	< 5.30
BPH-1 (prostate, adherent)	0.822	5.48
BT-20 (breast, adherent)	0.969	< 5.30
BT-474 (breast, adherent)	0.986	< 5.30
BT-483 (breast, adherent)	0.957	< 5.30
BT-549 (breast, adherent)	0.977	< 5.30
BV-173 (chronic myeloid leukaemia, suspension)	0.952	< 5.30
Becker (glioma, adherent)	0.92	< 5.30
BxPC-3 (pancreas, adherent)	0.981	< 5.30
C2BBe1 (large intestine, adherent)	0.985	< 5.30
C3A (liver, adherent)	0.986	< 5.30
C32 (melanoma, adherent)	0.98	< 5.30
C-4-I (cervix, adherent)	0.924	< 5.30
C-33-A (cervix, adherent)	0.966	< 5.30

Cell Line	AUC	pIC50
CA46 (Burkitt lymphoma, suspension)	0.985	< 5.30
CADO-ES1 (Ewing sarcoma, suspension)	0.981	< 5.30
CAL-12T (non-small cell lung carcinoma, adherent)	0.955	< 5.30
CAL-27 (head and neck, adherent)	0.831	5.49
CAL-29 (bladder, adherent)	0.947	< 5.30
CAL-33 (head and neck, adherent)	0.815	5.56
CAL-39 (cervix, adherent)	0.911	< 5.30
CAL-51 (breast, adherent)	0.989	< 5.30
CAL-54 (kidney, adherent)	0.985	< 5.30
CAL-62 (thyroid, adherent)	0.986	< 5.30
CAL-72 (osteosarcoma, adherent)	0.959	< 5.30
CAL-78 (chondrosarcoma, adherent)	0.968	< 5.30
CAL-85-1 (breast, adherent)	0.977	< 5.30
CAL-120 (breast, adherent)	0.955	< 5.30
CAPAN-1 (pancreas, adherent)	0.947	< 5.30
CAS-1 (glioma, adherent)	0.976	< 5.30
CCF-STTG1 (glioma, adherent)	0.978	< 5.30
CCK-81 (large intestine, adherent)	0.863	5.41
CCRF-CEM (lymphoblastic leukaemia, suspension)	0.935	< 5.30
CESS (acute myeloid leukaemia, suspension)	0.99	< 5.30
CFPAC-1 (pancreas, adherent)	0.965	< 5.30

Cell Line	AUC	pIC50
CGTH-W-1 (thyroid, adherent)	0.914	< 5.30
CHL-1 (melanoma, adherent)	0.945	< 5.30
CHP-126 (neuroblastoma, suspension)	0.88	< 5.30
CHP-134 (neuroblastoma, suspension)	0.961	< 5.30
CHP-212 (neuroblastoma, adherent)	0.876	5.37
CHSA0011 (chondrosarcoma, adherent)	0.864	< 5.30
CHSA0108 (chondrosarcoma, adherent)	0.963	< 5.30
CHSA8926 (chondrosarcoma, adherent)	0.978	< 5.30
CL-11 (large intestine, adherent)	0.954	< 5.30
CL-34 (large intestine, adherent)	0.986	< 5.30
CL-40 (large intestine, adherent)	0.971	< 5.30
CMK (acute myeloid leukaemia, suspension)	0.989	< 5.30
CML-T1 (chronic myeloid leukaemia, suspension)	0.984	< 5.30
COLO-205 (large intestine, suspension)	0.97	< 5.30
COLO-320-HSR (large intestine, suspension)	0.99	< 5.30
COLO-668 (small cell lung carcinoma, adherent)	0.982	< 5.30
COLO-678 (large intestine, semi-adherent)	0.984	< 5.30
COLO-679 (melanoma, adherent)	0.981	< 5.30
